The list shows a part of the results. At the low end of the ranking the order means little.

This assay deals with T1, GST-Rok-C97-191 (UniProt O34857).
T1 sequence: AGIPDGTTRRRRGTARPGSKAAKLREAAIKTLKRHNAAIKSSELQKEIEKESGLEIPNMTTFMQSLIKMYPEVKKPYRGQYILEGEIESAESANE
Put plainly: protein binding microarray.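 Note: rank score from −0.5 (least bound) to 0.5 (best bound).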 The following applies: Rok is a gene silencer of Bacillus subtilis; high values mean tight binding; most listed sequences are background and not binding sites; double strand, one strand shown.
With ATGGTAGG, the binding signal was 0.278 E-score. ATTACCTA yielded a binding signal of 0.337 E-score.

As to CTACATAC, the binding signal was 0.274 E-score.

AGGCCGGC had a binding signal of -0.232 E-score.

Sequence AGGAATGC came in with a binding signal of -0.00187 E-score.

Regarding CGGTTAAC, the binding signal was 0.0773 E-score. To GCAAAATA belongs 0.242 E-score; to TACACACA, 0.117 E-score; to GGCAGCTA, -0.0536 E-score. As for CTTACATA, the figure is 0.192 E-score. On to AGCACCAA, for which the binding signal is -0.0808 E-score. Turning to ACCCTGAC, the binding signal was -0.303 E-score. To CCCTCTGC belongs -0.279 E-score; to AACACTGT, 0.147 E-score; to GCCTGGCA, -0.319 E-score. To ACTACGGA belongs 0.164 E-score.

Take GACGCTCC: the binding signal was -0.127 E-score. CCTATGAG gave a binding signal of -0.0807 E-score. To ACCGCTGG belongs 0.0107 E-score.

As to ACTGGTAA, the binding signal was determined as 0.261 E-score. As for AATCCACG, the figure is 0.104 E-score. For the sequence AGCGCGAA, the binding signal amounted to 0.212 E-score. The sequence ATATTAAC displayed a binding signal of 0.296 E-score. To CTGCGCCA belongs -0.107 E-score; to CTTCCGCA, -0.0961 E-score; to CAACGAGC, -0.151 E-score.

GTACAATA showed a binding signal of 0.251 E-score. GGGGTTAC came in with a binding signal of -0.239 E-score. As for AAGTTGGG, the figure is -0.00229 E-score; as for AAAGCTCT, -0.0949 E-score; as for AACTGCTA, 0.0364 E-score. AGGGTACT came in with a binding signal of 0.118 E-score. To CGTGGTGA belongs -0.0886 E-score. Regarding ATAAGACA, the binding signal stood at 0.00737 E-score. To CGCAGCCA belongs -0.175 E-score; to GACGGGAC, -0.223 E-score; to AATGGTCC, -0.073 E-score. To CCATGAGG belongs -0.0423 E-score. As for CGAATGGA, the figure is 0.0881 E-score; as for ATGTTGCC, -0.161 E-score; as for AGAGATGG, -0.123 E-score. AAGGGCGT displayed a binding signal of -0.132 E-score. With GTCTTCTA, the binding signal worked out at 0.125 E-score. Turning to CGTGGCAA, the binding signal is -0.112 E-score. As for ATTCACGA, the binding signal was 0.136 E-score. GATGTAAC yielded a binding signal of 0.092 E-score. As for AGGTGATG, the figure is -0.171 E-score; as for ACACAATG, -0.0401 E-score. As for ACTACTAT, the figure is 0.46 E-score; as for AATACGGC, 0.0504 E-score.

ACTGACCC: the binding signal is -0.13 E-score. To AGGCAGGC belongs -0.357 E-score; to GGGTCCTA, -0.0419 E-score. As for CTGTTCTA, the figure is 0.0964 E-score. Sequence AGTTTGGA registered a binding signal of 0.178 E-score. With CATAGAGC, the binding signal was -0.181 E-score. To AAAGGCGT belongs -0.0871 E-score. To GCTATTAC belongs 0.285 E-score; to GCAGCTAA, 0.0158 E-score; to ATCGACGC, -0.0747 E-score. As for CCATTATC, the figure is 0.15 E-score; as for TCGAGGAA, -0.0145 E-score; as for ACGTCTGG, -0.225 E-score. With ATACCAAG, the binding signal was 0.0191 E-score. To ACGCCCCC belongs -0.315 E-score; to CCATGCGG, -0.0268 E-score. As for CCGTGGTA, the figure is -0.0158 E-score; as for GTTCCCCA, -0.234 E-score; as for GTCCCCCA, -0.199 E-score. As for CTAGCACC, the figure is 0.0257 E-score; as for AACGTACT, 0.201 E-score. On to CGAACAGA, for which the binding signal worked out at 0.133 E-score. To AAGTTCTG belongs 0.132 E-score; to GAATGTCC, -0.074 E-score. To CTACATGC belongs 0.305 E-score; to ACTGTTCC, -0.0604 E-score. To AGACAGAA belongs -0.0135 E-score; to CACTACTC, -0.0277 E-score; to CTACCAAC, 0.235 E-score.

ATCCTAAC gave a binding signal of 0.1 E-score. ATTCGGCA showed a binding signal of 0.0659 E-score. To TAAAGATA belongs 0.27 E-score. To GCCAGATA belongs -0.192 E-score; to ACGGTTGA, 0.0453 E-score. With CCACGCAA, the binding signal is -0.0524 E-score.

Take CGCATACG: the binding signal was 0.114 E-score.

Regarding CAGTTTCG, the binding signal stood at 0.0803 E-score. Regarding GACAGTTA, the binding signal came out at 0.0912 E-score. ACTACGAG: the binding signal is 0.171 E-score. To CAACAGCA belongs -0.159 E-score; to ATTTCGGG, -0.161 E-score.

In the case of CAGACATC, the binding signal was -0.232 E-score.

In the case of ACAAAATC, the binding signal came to 0.16 E-score.

For the sequence TACATCTA, the binding signal was 0.369 E-score. As for TAAGCGAA, the figure is -0.154 E-score; as for ATTGCTAG, 0.266 E-score; as for ATCCTTTC, 0.0586 E-score. As for CATGTCCG, the figure is 0.0905 E-score; as for CGTATACC, 0.00242 E-score. To GGGAACAC belongs -0.137 E-score; to GAACGGAC, -0.373 E-score; to AACTTTCC, 0.045 E-score. Consider CTCTATAC, for which the binding signal stood at 0.143 E-score. As for ACGTCGAA, the figure is 0.096 E-score; as for ATGGCCTC, -0.182 E-score; as for AGTGACAC, -0.0326 E-score. As for AACATTAC, the figure is 0.127 E-score; as for AAATTTGA, 0.0368 E-score; as for ACCTCACA, 0.0491 E-score.

Consider GAGGCGAC, for which the binding signal is -0.0191 E-score.

On to GATCCGAC, for which the binding signal is -0.0267 E-score. On to CCTACAGG, for which the binding signal is -0.0994 E-score.

As to AAATATTA, the binding signal came to 0.355 E-score. As for AGTATTTC, the figure is 0.311 E-score; as for CTCCTAAC, 0.0286 E-score.

For ACTAACTA, the binding signal is 0.367 E-score.

TCGCCTCA had a binding signal of -0.0614 E-score.

Consider ATCCATCC, for which the binding signal came to 0.0617 E-score. On to TAACCCTA, for which the binding signal is -0.0278 E-score. To AACTCCTC belongs -0.0635 E-score. CTAACAAC came in with a binding signal of 0.0204 E-score. As for AGCTCACG, the figure is -0.0298 E-score.

Sequence CCGTCGAG registered a binding signal of -0.248 E-score. To GCTCAAAC belongs -0.0747 E-score; to CACCTGTA, 0.0434 E-score; to CTGATAAC, 0.0625 E-score. In turn, GACGACGC came in with a binding signal of -0.0813 E-score.

CAAGCTTC: the binding signal was -0.0593 E-score. As for CAATAAGA, the figure is -0.045 E-score. On to ACGGGTGA, for which the binding signal is -0.0241 E-score. As for CATATTTC, the figure is 0.245 E-score; as for CATGACTA, 0.0832 E-score. ATCTTTGA registered a binding signal of 0.0195 E-score. As for AAGCCAAC, the figure is -0.171 E-score; as for CGTTACTA, 0.299 E-score; as for CAAGAGAG, -0.105 E-score. To GCTTTGTA belongs 0.225 E-score; to CTCATTGC, -0.158 E-score; to AACTGACA, -0.0326 E-score. To GTAGGGGA belongs -0.235 E-score; to GGCATGGA, -0.144 E-score. For CGTGTTCA, the binding signal was -0.172 E-score.

AGGAACTG came in with a binding signal of -0.0105 E-score. As for AGGTTAAA, the figure is 0.105 E-score; as for AGTCGGTG, -0.00548 E-score. To TACCTGGA belongs -0.00728 E-score. AGAGAACT: the binding signal came out at 0.0929 E-score. As for CTCCTATA, the figure is 0.209 E-score. ATCTAGGG came in with a binding signal of -0.0226 E-score. To GCGAGACA belongs -0.14 E-score; to CTAACCCC, -0.289 E-score. Take ATGGGAGG: the binding signal is -0.213 E-score.

Regarding ACAAGAGA, the binding signal was 0.0565 E-score. To AAGCATCT belongs -0.187 E-score; to CCATTAAC, 0.116 E-score.

On to GTATTTGA, for which the binding signal stood at 0.0326 E-score.

Take ATGCGATC: the binding signal was -0.0839 E-score.

In turn, AGTGAAAC displayed a binding signal of -0.0501 E-score. As for AGTTCTTG, the figure is -0.0583 E-score. Consider CGTGGTCA, for which the binding signal is -0.0431 E-score. As for TCAAGCGA, the figure is -0.187 E-score; as for ACCCAGTC, -0.0583 E-score; as for TATATATA, 0.454 E-score.

As for TGTTGTAA, the binding signal worked out at 0.179 E-score. To ACCGGCTA belongs -0.0516 E-score.

CGAAGCTA displayed a binding signal of 0.0414 E-score. To AATTAAGT belongs 0.233 E-score; to AGTCTCTA, 0.0188 E-score. As for ACATTTTA, the figure is 0.303 E-score. As for ATGGTAAA, the figure is 0.23 E-score; as for GTCGCGGA, -0.131 E-score; as for ACAAGCCT, -0.0979 E-score.

The values are drawn from PMC6212790.
